Experimental data as given in the RNAGym collection of RNA variant scans (doi:10.7554/elife.90254).
Read counts are not given, so values of variants with three or more changes are uncertain.

B1: LINE1-mini (parent)
chain: GGCAGAGCUCAACACAGCGUGGCAAAGUGGCUGUGGCUAGACUGCC

Variants of: B1
Test: self-cleavage, relative activity (ratio to wild type); higher = more cleavage; in vitro, sequencing; the parent is a self-cleaving ribozyme

| Variant | self-cleavage |
| --- | --- |
| G1C A16U U28G G44U | 0.02 |
| G1A G27A U28G | 0.41 |
| G1A A6U U32A G35U G36A | 0.06 |
| G1C A4C C31U C46A | 0.01 |
| G1A A6C C8G A24C A41C | 0.05 |
| G1A C13A C18G | 0.06 |
| G1C A4U A12G G44C | 0.01 |
| G1A G2A G17U G19U A26U | 0.41 |
| G1A G7C C10A U28C G33U | 0.11 |
| G1C A6U C8A G44A | 0.02 |
| G1C A4G C15A A24U U34A | 0.03 |
| G1A G5U C10A C13A U20C A25G | 0.04 |
| G1A U32A C42U | 0.17 |
| G1A A6U A12G A16C | 0.05 |
| G1A A14G C15U G19U A26U C46A | 0.04 |
| G1A C10U A11C A16C | 0.02 |
| G1A A12G A25G | 0.04 |
| G1A C10G A41C | 0.03 |
| G1A A4G A14U G19A U38A | 0.1 |
| G1A C10U A12C C46A | 0 |
| G1A A12C G30A G33A | 0.02 |
| G1A U28A G30U | 0.25 |
| G1C C3A G7A C46A | 0.21 |
| G1C C3A C10A A25U G29C G30U G33U A41C | 0.02 |

| Variant | self-cleavage |
| --- | --- |
| G1A G2C C45G | 0.59 |
| G1A C13U C42G | 0.06 |
| G1A U9G C18U A24C U28A G36U C45G | 0.04 |
| G1A A25U G29U C46G | 0.36 |
| G1C C3A C8A | 0.39 |
| G1A G5U U20A A24G | 0.11 |
| G1A C3U C31G U32A | 0.13 |
| G1A G2C A6C G19A G33U | 0.04 |
| G1C A4G A24G | 0.12 |
| G1C A4G A24U | 0.07 |
| G1C A24G G33A | 0.01 |
| G1A G7A A16U G27U G44U | 0.14 |
| G1A C18A U20A A26G G27U | 0.19 |
| G1A A12U G21U U38C C45U | 0.16 |
| G1A A41C C45U | 0.01 |
| G1A C10A G19C G29A U32A A41U C45A | 0.01 |
| G1A C10A G44C | 0.06 |
| G1A C15U C23A G36C C46U | 0.19 |
| G1A C3U A25U G29A U34C | 0.22 |
| G1C C3A A11G C23U A24U C31U G33C A41C | 0.02 |
| G1C A16G G21A G29A U34A | 0.01 |
| G1C A4U C23U C37G U43G | 0 |
| G1C A16C C18A A25C | 0 |
| G1A A11G G40C C45U | 0.06 |

| Variant | self-cleavage |
| --- | --- |
| G1C A11G C23A G29C | 0.01 |
| G1A C3A C10A C37U | 0.78 |
| G1A G5A A6U C15G G19U | 0.16 |
| G1A U9A C18G A24G U28A G35U C42U | 0.2 |
| G1C A6G U43G | 0 |
| G1A C13A G17C C23A G40A | 0.04 |
| G1A C18A G22A C23A A26C | 0.28 |
| G1A C15A C45A | 0.02 |
| G1A A6U A11G U28G | 0.05 |
| G1A U32G G44C | 0.07 |
| G1A A12U G44C | 0.04 |
| G1A C13G A14U A26U | 0.06 |
| G1A G7C C18U A25U U28A G36C C37G A39G C45G | 0.02 |
| G1A G30A C31G C45A | 0.05 |
| G1A C13U C31A A39C | 0.01 |
| G1A U9A C13G | 0.52 |
| G1A A12U G22U C31G C42G | 0.04 |
| G1A C31U G44C | 0.04 |
| G1A G5C G21C C31A G35U | 0.02 |
| G1A C10G G22C C42G C46G | 0.01 |
| G1A A14G A24U A26U | 0.21 |
| G1A C3A G5C G22U G44C | 0.74 |
| G1C A11G A12G C37G | 0.01 |
| G1A C10G U28C | 0.07 |

| Variant | self-cleavage |
| --- | --- |
| G1C A6G G17A U20A A26G | 0.01 |
| G1C A14U U20A | 0.08 |
| G1A C3A G7C C10G C15U A24U U28G | 0.25 |
| G1A G7A C8G C18A G36C | 0.02 |
| G1A G2C A25C G27U A39G | 0.15 |
| G1A A26U C31U C42G | 0.04 |
| G1A G2A C18U G40A C46G | 0.46 |
| G1A G5C G17U G27C C31A U38C | 0.03 |
| G1A C3U G33A G36U | 0.28 |
| G1A C8U C13G | 0.57 |
| G1C A6U C42G | 0.03 |
| G1A A11U G22U G30A | 0.07 |
| G1A A16U C23U | 0.25 |
| G1A G22C G33A | 0.02 |
| G1A G7C C13U | 0.65 |
| G1A A14U A16U C37A | 0.09 |
| G1A U20A C23A U28C U43C | 0.05 |
| G1A G7A C23A A24U | 0.27 |
| G1A A14G A25C A26U U32G G44U | 0.06 |
| G1A G7C G29U G30U U32A | 0.16 |
| G1A C13U C23A | 0.38 |
| G1A G27C A39C | 0.12 |
| G1A C15U A16C G22A A25G C37A | 0.07 |
| G1A A12G A16U G22A A41U C45U | 0.02 |

| Variant | self-cleavage |
| --- | --- |
| G1C A16U C18A C31A C37U | 0 |
| G1A G2A G7U G17U U34A | 0.61 |
| G1A U28C G30C | 0.61 |
| G1A G2C U9G C10G C23U | 0 |
| G1A G2U G33U G35A G36U C45A | 0.01 |
| G1A A4U A6C U9G A12C A41G | 0.18 |
| G1A A11C C18U G29A | 0.03 |
| G1C A14C A41C | 0.03 |
| G1A G7C G21U C37U | 0.2 |
| G1A C15G G17A | 0.03 |
| G1C A25C U28G G40C | 0 |
| G1C A16C C18G | 0.01 |
| G1A A24G U34A C37G | 0.03 |
| G1C C3A C15U G17C | 0.05 |
| G1C A14G G21A U34G U38G A41C | 0 |
| G1A U9A A26C U28G | 0.4 |
| G1C A4C U34A | 0.02 |
| G1A G5C G7U U38G G44U | 0.03 |
| G1A A6U A16G G22C | 0.07 |
| G1A A41U C45G | 0.15 |
| G1A C3A A6U A11U A12C | 0.09 |
| G1C A14U G35U C46A | 0.02 |
| G1C A6C A11C A24G G44U | 0.01 |
| G1C A26G G29A A41C | 0 |

| Variant | self-cleavage |
| --- | --- |
| G1A C15U A25U U28C | 0.59 |
| G1C A14U U20C G40A G44C | 0.01 |
| G1A G2A A39U | 1.84 |
| G1A U28A U32G | 0.01 |
| G1C A12U G17C A25C U43C | 0.01 |
| G1A A12G C15G G19A A26U | 0.05 |
| G1A C8A A14U U28A G44U | 0.23 |
| G1A G7C A39C | 1.28 |
| G1A C10A A12C G30C | 0.01 |
| G1A C3G C18U | 0.26 |
| G1C A6G U32G U43C | 0 |
| G1A A6G A11C | 0.02 |
| G1A G2U G21A | 0.62 |
| G1A C18G U38G | 0 |
| G1C A14C C23A | 0.06 |
| G1A C13G G33C | 0.06 |
| G1A C3G A12G | 0.16 |
| G1A U9A G17C C18A A41G | 0.05 |
| G1A G2A G5U A12G U20G | 0.03 |
| G1A G19C U20G | 0.5 |
| G1A A12C C18A C37A C46G | 0.07 |
| G1A A14G G17U C18U A39G | 0.02 |
| G1A U20C U38A | 0.35 |
| G1A C15G A41C | 0.05 |

| Variant | self-cleavage |
| --- | --- |
| G1A G30U G35U | 0.24 |
| G1A C8U G27C C37A | 0.17 |
| G1A U9G G17C C18G G29A G40A | 0.05 |
| G1A C10A A16U G21U G22U | 0.14 |
| G1A C3U C15U G22A U28C C37G | 0.25 |
| G1A U9A C23G | 0.19 |
| G1A A16G C18A A25C | 0.03 |
| G1A A4G G33U G40U | 0.04 |
| G1A G5A C15G A24G | 0.1 |
| G1A U34A U43A | 0.05 |
| G1A C8U A12U C46G | 0.67 |
| G1C A16U A24U G36C C37U G44U | 0.02 |
| G1A A4C C13G G40U A41C | 0.06 |
| G1A C3A C23U U34A G36U A41C | 1.36 |
| G1A C42U G44A | 0.06 |
| G1C A6G A11U A12G A14G | 0 |
| G1A A16U A25G C31G | 0 |
| G1A C8A A11C G27A U32C G36U | 0.04 |
| G1A G7U G36U | 0.15 |
| G1A C10G C46U | 0.68 |
| G1A C18U A25U A39G | 0.07 |
| G1A C8G A12U C37A C45U | 0.07 |
| G1A A11G G17A U32A G35C | 0 |
